{"source": "paper PMC7819943", "about": "“Rice protein-binding microarrays: a tool to detect cis-acting elements near promoter regions in rice”", "note": "Some of the results follow.", "data": [{"biological_target": "T1, OsWOX13 (Oryza sativa, UniProt Q5QMM3 1-267)", "T1 sequence": "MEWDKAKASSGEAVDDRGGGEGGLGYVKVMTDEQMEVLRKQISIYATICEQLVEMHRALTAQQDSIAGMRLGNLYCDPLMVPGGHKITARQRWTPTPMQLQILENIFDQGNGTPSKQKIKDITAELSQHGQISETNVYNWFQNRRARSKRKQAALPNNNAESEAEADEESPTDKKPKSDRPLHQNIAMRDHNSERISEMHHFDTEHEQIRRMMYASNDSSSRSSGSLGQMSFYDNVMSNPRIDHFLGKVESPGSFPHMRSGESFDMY", "assay": "protein-binding microarray (RPBM); PBS, 2% BSA, 51.3 ng/ul salmon testes DNA, 50 uM zinc acetate, 200 nM TF, 25 C, 1 h; high values mean tight binding", "details": "protein: recombinant; tags: N-terminal polyhistidine and DsRed monomer fusion (pET32a); label: CyDye5-dUTP incorporated in the synthesized complementary strand; 3' TTTTT single-stranded linker to array surface; dsDNA, one strand shown", "method_in_brief": "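Transcription factors, each fused N-terminally to a polyhistidine tag and DsRed, were expressed in E. coli BL21-CodonPlus and purified on Ni–NTA. A custom Agilent array was made double-stranded by primer extension with Cy5-dUTP and blocked with 2% BSA. It was incubated with 200 nM protein in PBS, 2% BSA, salmon testes DNA and 50 µM zinc acetate at 25 °C for 1 h, then washed. The binding signal is per-feature fluorescence intensity (arbitrary units) read on an Axon 4000B scanner.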", "values": [{"sequence": "AGCCACTAACTGAATGAACAGGACACAAACAGTTCTACGACGGAGTCACCTAGTGCAG", "binding signal": "12600 fluorescence intensity (a.u.)"}, {"sequence": "CATCGATTGATAGCTACCTGACGAGACTACCCTATCACCACGGAGTCACCTAGTGCAG", "binding signal": "41100 fluorescence intensity (a.u.)"}, {"sequence": "CGATCATATTTTAAATTATAATTAAGTATAACGATAGATGCGGAGTCACCTAGTGCAG", "binding signal": "6500 fluorescence intensity (a.u.)"}, {"sequence": "GAGATATTATCTTGATGGGATTGCTTGGGTACCCCTGTTCCGGAGTCACCTAGTGCAG", "binding signal": "4090 fluorescence intensity (a.u.)"}, {"sequence": "GAAGTGGATTGGAATTTGCAACAACCCAGGAAAACACGGCCGGAGTCACCTAGTGCAG", "binding signal": "8600 fluorescence intensity (a.u.)"}, {"sequence": "GCCATTGATTGCCCATGCACTGACACGACCACAGATGCCTCGGAGTCACCTAGTGCAG", "binding signal": "27900 fluorescence intensity (a.u.)"}, {"sequence": "GCGATTTAAACTCGATTAATAGACTAGGAACGTCATGTGGCGGAGTCACCTAGTGCAG", "binding signal": "10700 fluorescence intensity (a.u.)"}, {"sequence": "TTCTGTGTGATTATATGAAGCTAGGGTCTGACCGCCTCACCGGAGTCACCTAGTGCAG", "binding signal": "5710 fluorescence intensity (a.u.)"}, {"sequence": "TACGGAAAATGACAATAATTTATTTGAAAATCGTAACTCCCGGAGTCACCTAGTGCAG", "binding signal": "9400 fluorescence intensity (a.u.)"}, {"sequence": "TGAAACATAAATGATAGGAATATTTCCCCTACTTGCTCAACGGAGTCACCTAGTGCAG", "binding signal": "5230 fluorescence intensity (a.u.)"}, {"sequence": "TCAAGCCCTAATTATTGCTCAAGGCTAGTGAGAGTCGTAGCGGAGTCACCTAGTGCAG", "binding signal": "4530 fluorescence intensity (a.u.)"}, {"sequence": "CTCACATGTATAAATGATTTAAATTGTATATATACTTGCTCGGAGTCACCTAGTGCAG", "binding signal": "11200 fluorescence intensity (a.u.)"}, {"sequence": "CAAATTAGACAAATATATCAAACTAGACTACTAAAACACTCGGAGTCACCTAGTGCAG", "binding signal": "14400 fluorescence intensity (a.u.)"}, {"sequence": "ACCAAATTGCAATACATCAAACATATCTTCATTTCCAGAACGGAGTCACCTAGTGCAG", "binding signal": "7140 fluorescence intensity (a.u.)"}, {"sequence": "AAAATTTGATGAGAGATTAGTTAAAGAAAGTGAACATGGACGGAGTCACCTAGTGCAG", "binding signal": "8740 fluorescence intensity (a.u.)"}, {"sequence": "ACAAGATTGACTCGACTAGTTTTAACCTGTGGTATCCCTACGGAGTCACCTAGTGCAG", "binding signal": "36400 fluorescence intensity (a.u.)"}, {"sequence": "TGTTATCAAGATTGAAAGAGGAAAAGTTACAAATTGCAAACGGAGTCACCTAGTGCAG", "binding signal": "4620 fluorescence intensity (a.u.)"}, {"sequence": "AGATGATTTGGAGCTAGTAGTTGGCTGTATTATTAAACTTCGGAGTCACCTAGTGCAG", "binding signal": "24300 fluorescence intensity (a.u.)"}, {"sequence": "TACCCATCTTCCATTGACAGACAATTGGGCCCCACTCCGCCGGAGTCACCTAGTGCAG", "binding signal": "7450 fluorescence intensity (a.u.)"}, {"sequence": "TCTGATAGCTTGTGAGGGTTTCATTCATCCTCTGCTAGTGCGGAGTCACCTAGTGCAG", "binding signal": "6630 fluorescence intensity (a.u.)"}, {"sequence": "CATGGTCTATTGATTAGGTGCTAATTAATCACTGGTGAGGCGGAGTCACCTAGTGCAG", "binding signal": "28600 fluorescence intensity (a.u.)"}, {"sequence": "GATTATAATTTGTAAGATAATTGACCATGGAGAAGATTCACGGAGTCACCTAGTGCAG", "binding signal": "16300 fluorescence intensity (a.u.)"}, {"sequence": "CCACTGACAGGTGGCTTCTTTTGAGTCCTTGTGTAACATGCGGAGTCACCTAGTGCAG", "binding signal": "9840 fluorescence intensity (a.u.)"}, {"sequence": "AACAATCAATCTTCATAAATCTACTCTTCTGTTTCAAAATCGGAGTCACCTAGTGCAG", "binding signal": "4360 fluorescence intensity (a.u.)"}, {"sequence": "TCGTAATTGCTGCTTCGATTCCTCTGAATATATGAATGCACGGAGTCACCTAGTGCAG", "binding signal": "29800 fluorescence intensity (a.u.)"}, {"sequence": "GATAGCAATTAATTAGTTTATGCCTCTCTTGACAGGGACACGGAGTCACCTAGTGCAG", "binding signal": "19700 fluorescence intensity (a.u.)"}, {"sequence": "ATTAATATCGTTATGATTTGATACGATTTGGTCTTCCCTTCGGAGTCACCTAGTGCAG", "binding signal": "13600 fluorescence intensity (a.u.)"}, {"sequence": "ATTTGATTTGCTTCTTTAACTTTTGGAACTAGAGTAAGTACGGAGTCACCTAGTGCAG", "binding signal": "33200 fluorescence intensity (a.u.)"}, {"sequence": "GCTAGTGCCCTGTTGATTGTGAAAGAATTTGCTAGTTTCCCGGAGTCACCTAGTGCAG", "binding signal": "3800 fluorescence intensity (a.u.)"}, {"sequence": "TTTAGTAATTGGTAGAGCTCAAATTTCTAAATTTAACTTCCGGAGTCACCTAGTGCAG", "binding signal": "6730 fluorescence intensity (a.u.)"}, {"sequence": "CACACGTAATTGATACACATTACCATCACTATCAACCACTCGGAGTCACCTAGTGCAG", "binding signal": "48700 fluorescence intensity (a.u.)"}, {"sequence": "TTATACATCCAAATTTGATTGTTGCGTGCTTATTTTGTTGCGGAGTCACCTAGTGCAG", "binding signal": "13700 fluorescence intensity (a.u.)"}, {"sequence": "TGATATTTCTGTTTATTTGATTTACATGATACACTAATTTCGGAGTCACCTAGTGCAG", "binding signal": "3560 fluorescence intensity (a.u.)"}, {"sequence": "GTATGCTATCCTCTGTCCCTTGATGAACTGAAAGGGACACCGGAGTCACCTAGTGCAG", "binding signal": "5930 fluorescence intensity (a.u.)"}, {"sequence": "TTAGATTGCGCTCGCCTGATTCGCTGCATCTTGTTCTTCTCGGAGTCACCTAGTGCAG", "binding signal": "4270 fluorescence intensity (a.u.)"}, {"sequence": "TAATTAAAACACAATCAATCATACGTTAATACCATCTCATCGGAGTCACCTAGTGCAG", "binding signal": "14300 fluorescence intensity (a.u.)"}, {"sequence": "GTAAAGATCTCTGATTGAAACTGGACATGCCACAACAAACCGGAGTCACCTAGTGCAG", "binding signal": "10700 fluorescence intensity (a.u.)"}, {"sequence": "TTGAGCCAGTTATTGGCGCAGATTATCGACTTGATTGTAGCGGAGTCACCTAGTGCAG", "binding signal": "8380 fluorescence intensity (a.u.)"}, {"sequence": "GCGATGATTGGCTTGCACTCTGCCACGTAGGATCCGCTCCCGGAGTCACCTAGTGCAG", "binding signal": "39400 fluorescence intensity (a.u.)"}, {"sequence": "AAATGATGGATTTAATTCGATATCTCGATCGTAATTTACACGGAGTCACCTAGTGCAG", "binding signal": "3420 fluorescence intensity (a.u.)"}, {"sequence": "TTAAATTTTCTATATAAATCTATTCAAATCTGCATAAATGCGGAGTCACCTAGTGCAG", "binding signal": "3870 fluorescence intensity (a.u.)"}, {"sequence": "CTAATGATTATACTAACCATATATTTATGTTAAGTATTATCGGAGTCACCTAGTGCAG", "binding signal": "8080 fluorescence intensity (a.u.)"}, {"sequence": "ACTTGACAGGAATTGCAGAAAGGCCCCTCGCCAAAACTCACGGAGTCACCTAGTGCAG", "binding signal": "30900 fluorescence intensity (a.u.)"}, {"sequence": "TCTTCTGATTGCTTTCACACAAGATCCAGCAAAATTAATTCGGAGTCACCTAGTGCAG", "binding signal": "16900 fluorescence intensity (a.u.)"}, {"sequence": "CCCCAATCAGCCACCACCATCCACACTACCCTCCATCTTTCGGAGTCACCTAGTGCAG", "binding signal": "6300 fluorescence intensity (a.u.)"}, {"sequence": "AGATTGACAAAGTTATAACAAGTGTGTCACTGTAAGAATACGGAGTCACCTAGTGCAG", "binding signal": "7760 fluorescence intensity (a.u.)"}, {"sequence": "AGAGTACATAATTGAAGGTGGGAACGCCGAAATGTACTGACGGAGTCACCTAGTGCAG", "binding signal": "13800 fluorescence intensity (a.u.)"}, {"sequence": "TTTATCAATTGAATTATCGAAACTAATGAATAGTGTGACGCGGAGTCACCTAGTGCAG", "binding signal": "13100 fluorescence intensity (a.u.)"}, {"sequence": "TGGTGCGAGTTAATTAATTATCTACCTTTACCCTTTAAGCCGGAGTCACCTAGTGCAG", "binding signal": "17300 fluorescence intensity (a.u.)"}, {"sequence": "TTTAAATGGAGAAGAGTGACAGAGGTGGATAAACCCGCTTCGGAGTCACCTAGTGCAG", "binding signal": "4610 fluorescence intensity (a.u.)"}, {"sequence": "TTTAATTGTTCTGCGATTACGGTAGAAATAGATCGGGCTTCGGAGTCACCTAGTGCAG", "binding signal": "22500 fluorescence intensity (a.u.)"}, {"sequence": "GGAACCGCAAGGGTTAATTGAGATCAAGTTCAGGTCAGAGCGGAGTCACCTAGTGCAG", "binding signal": "4610 fluorescence intensity (a.u.)"}, {"sequence": "CATGGCTAATTATCGCCAGATCTAATGGAGCCACAAATGCCGGAGTCACCTAGTGCAG", "binding signal": "9610 fluorescence intensity (a.u.)"}, {"sequence": "GTTGATGGTTAATTGCTTCCATAATTCTATTGCTGTATATCGGAGTCACCTAGTGCAG", "binding signal": "33900 fluorescence intensity (a.u.)"}]}]}
